The whole screen tested about 2,800 compounds, of which fewer than 10 were called active. The call rests on the fitted dose curve; in most records, active means well fitted curve in the direction sought with a large enough effect; inconclusive means small, poorly fitted or top-dose-only effect, or another doubt; inactive means no such curve, though single readings can be large or run the other way. The list shows a part of the results.
These compounds were tested against Metallo-beta-lactamase type 2 (Klebsiella pneumoniae) (UniProt C7C422) (assay: qHTS to identify inhibitors of the New Delhi Metallo-beta-lactamase (NDM): Meropenem screen against the machine-based learning selections.). Conditions: Purified NDM-1, meropenem hydrolysis, absorbance 300 nm; at 38.4 µM (top of the series) unless noted.
UniProt C7C422, sequence (C7C422 whole entry, looked up): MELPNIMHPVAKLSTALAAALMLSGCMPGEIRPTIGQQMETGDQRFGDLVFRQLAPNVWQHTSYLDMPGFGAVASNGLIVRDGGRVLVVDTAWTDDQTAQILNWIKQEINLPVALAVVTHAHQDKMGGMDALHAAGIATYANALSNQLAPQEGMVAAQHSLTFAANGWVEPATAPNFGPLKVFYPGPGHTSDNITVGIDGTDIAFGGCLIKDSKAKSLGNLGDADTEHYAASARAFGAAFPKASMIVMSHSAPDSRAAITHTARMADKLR
Outline: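 Hydrolysis by 2 nM NDM-1 was followed by absorbance after >30 min compound preincubation in HEPES pH 7.0 buffer with 1 uM Zn2SO4. For nitrocefin (16.7 uM, 15 min, 485 nm) and meropenem (50 uM, 30 min, 300 nm), each substrate ran on separate plates.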
Further: % of control where 0% means no effect.

Activity change, negative = inhibition, inactive:
COc1ccc2c(c1)CCN=C2C[C@H]1CN(C(=O)c2cccc(F)c2)CC[C@H]1CC(=O)O 3.07%
CCN(CC)Cc1cnc2c(C(=O)N3CCC(N(C)C)C3)cnn2c1 (stereo not drawn) -2.89%
CC(=O)N1CCC(NC2(Cc3cc(CN(C)Cc4ccccc4)on3)COC2)CC1 -0.101% [at 57.5 µM]
Cn1c(CN2CCOCC2)nnc1C1CCN(c2ncccc2C#N)CC1 0.311%
Cc1ccc(NC(=O)O[C@@H]2CO[C@H]3[C@@H]2OC[C@@H]3Nc2nccc(-c3ccccc3)n2)cc1 2.93% [at 57.5 µM]
O=c1n(-c2ccc([N+](=O)[O-])cc2)nc2n1CCN(Cc1cccc3ccccc13)C2 6.62%
Cc1cc(Cn2cc3c4c(cccc42)[C@H](CC(C)C)N[C@H](C(=O)NCCN2CCCC2)C3)no1 -3.17%
COc1ccc(C(=O)N2CCCC(O)(CN3CCCC3)C2)cc1Cl (stereo not drawn) -1.57%
COc1ccc(C(=O)N2CCC(N3CCCCCC3=O)CC2)cc1 -0.899% [at 57.5 µM]
O[C@@H]1[C@@H](Cn2cc(-c3cccnc3)nn2)C[C@@H](NC2CCOCC2)[C@@H]1O 47.6%
COC(=O)c1ccc2nc(CO[C@H]3CN(Cc4cnn(C)c4)C[C@H]3F)[nH]c2c1 2.32% [at 57.5 µM]
O=C(CN1CC2CC(C1)[C@H]1CCCC(=O)N1C2)NCc1cc(F)ccc1F (stereo partly drawn) 1.21%
CC(=O)Nc1ccc(CN2CC3(C2)C(=O)N(Cc2ccc(C)o2)C(=O)[C@@H]2C[C@@H](O)CN23)cc1 0.75%
CCNC(=O)O[C@@H]1CO[C@H]2[C@@H]1OC[C@@H]2NC(=S)Nc1ccc(N(C)C)cc1 7.83% [at 57.5 µM]
CN(Cc1ccccc1)Cc1cn([C@H]2CO[C@H]3[C@@H]2OC[C@@H]3NC(=O)CCC(=O)O)nn1 3.39% [at 57.5 µM]
Cc1noc([C@@H](C)NS(=O)(=O)c2ccccc2)c1C(=O)O 4.92% [at 57.5 µM]
Cc1cc(-c2cc3c(cn2)CN(Cc2ccc4[nH]ccc4c2)CCN3)ccn1 -1.79% [at 57.5 µM]
CN(C(=O)c1cc2ccccc2n1C)C1CCCN(C2Cc3ccccc3C2)C1 (stereo not drawn) 0.817%
Nc1cncc(-c2nccc(N3CCC(O)CC3)n2)c1 62.2%
Cc1noc(C2CC3(CCN(C(=O)C4CCC4)CC3)CN2C)n1 (stereo not drawn) 1.47%
COCCNC(=O)C[C@@H]1O[C@H](CNC(=O)c2cccc(F)c2)[C@@H](O)[C@H]1O -5.31% [at 57.5 µM]
CSCC(=O)N1CC[C@H](NC(=O)Nc2ccc(F)cc2F)[C@H]1C(=O)N[C@@H](Cc1cccs1)C(N)=O -0.628%
Cc1noc2c(N3CC(O)C3)cc(-c3ccsc3)nc12 10.5% [at 76.7 µM]
O=C(N[C@H]1CCN2C(=O)c3ccccc3NC(=O)[C@@H]2C1)c1ccccc1 0.0244% [at 57.5 µM]
OC1(c2nc(Nc3ccc(Oc4ccccc4)cc3)n[nH]2)CCOCC1 40.1% [at 57.5 µM]
CCc1ccc(CNC(=O)c2ccc3c(c2)N(C)C2CCCCN2C3=O)cc1 (stereo not drawn) -0.597%
COc1ccc(Cl)cc1-c1ccc2c(c1)C(=O)N1CCN(C(=O)CO)C[C@@H]1C(=O)N2 21.9% [at 57.5 µM]
COCCO[C@H]1C(=O)N(C2CCN(C(=O)c3cnccn3)CC2)[C@H]1c1ccncc1 0.176%
COC(=O)N1CCCC(c2nn(-c3ccc(OC)cc3)c(=O)[nH]2)C1 (stereo not drawn) 3.69% [at 57.5 µM]
CCCC1(CO)CCCN(Cc2ccc(OCC(=O)N3CCCC3)cc2)C1 (stereo not drawn) -3.09%
CC1(C(=O)NCc2cccnc2)CCCc2cnc(Nc3ccccc3)nc21 (stereo not drawn) -1.69% [at 57.5 µM]
CC[C@H]1CN(C(=O)NC(C)C)CC[C@H]1CC(=O)N(C)CCC#N -1.97% [at 57.5 µM]
O=c1c2nc(-c3cccc(O)c3)ccc2ncn1Cc1ccccn1 13.6% [at 57.5 µM]
O=c1c2nc(NCc3ccccc3)ccc2ncn1Cc1ccccc1 9.65% [at 57.5 µM]
Cc1ccc2c(n1)N(C)[C@H](CO)CCN(Cc1ccc(Cl)cc1)C2 -1.68% [at 57.5 µM]
c1c(CC2CCCCC2)nnn1[C@H]1CO[C@H]2[C@@H]1OC[C@@H]2NCC1CCCCC1 -1.06% [at 57.5 µM]
Cc1ccc2nc(C3CCN(Cc4ccc(-c5cccs5)cc4)CC3)[nH]c(=O)c2c1 9.14%
CC(=O)NC[C@@H]1C=C(C)[C@H](CC(=O)N(C)Cc2ccccc2)C[C@H]1C(C)C 6.37% [at 57.5 µM]
Cc1ccc2nc(C3CCCN(Cc4ccccc4)C3)[nH]c(=O)c2c1 (stereo not drawn) -0.317% [at 57.5 µM]
CN1[C@@H](CCC(=O)N2CC[C@@H](O)C2)CNC(=O)[C@@H]2[C@H]1CCN2C1CCOCC1 -4.43% [at 57.5 µM]
Cc1ccc(S(=O)(=O)N(C)CC2CCOC2)cc1F (stereo not drawn) 3.62%
OC(c1nc(Nc2ccc(N3CCOCC3)cc2)n[nH]1)C1CC1 (stereo not drawn) 48.7% [at 57.5 µM]
CNC(=O)C1(N2CCC[C@H]2C(=O)NC(C)C)COC1 -1.65% [at 76.7 µM]
O=C(O)c1ccc([S+](=O)([O-])N2CC(COc3ccccc3)C3(CN(c4ccccc4)C3)C2)cc1 (stereo not drawn) 1.65%
CCn1cnnc1CCNC(=O)c1cc(-c2ccc(C)cc2)nc2ccccc12 -0.957%
CC(C)(C)C(=O)N1CCC2(C1)C(=O)N(CCc1ccccc1)c1ccccc12 (stereo not drawn) -1.91%
CN1CCCC2(C1)CN(Cc1cccnc1)c1ccc(C(=O)Nc3ccc(F)cc3)cc12 (stereo not drawn) 3.28% [at 57.5 µM]
O=C(c1cccc2cnccc12)N1CCC2(CC1)Nc1ccccc1NC2=O 1.39%
